In PubChem BioAssay AID485297 (National Center for Advancing Translational Sciences (NCATS), 2010):
About 9,100 (2.8%) of roughly 320,000 compounds were called active. The shares of active, inactive and inconclusive entries below differ from those in the screen. Calls follow the shape of the dose curve; as a rule, active = well fitted activation curve with a large enough effect; inconclusive = small, poorly fitted or top-dose-only effect; inactive = no such curve, though single readings can be large or run the other way. Potencies of inconclusive entries are doubtful fits and often do not repeat.

Test: qHTS Assay for Rab9 Promoter Activators; also: nearly all actives have a fitted effect of over 60% in size; as to activation, negative = inhibition: % of control where 0% means no effect
Conditions: Huh7 Rab9 promoter-luciferase reporter, luminescence, 24 h; series mostly up to 9.22 µM; activation, negative = inhibition: at the top concentration
Method in brief: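 Luminescence from Amplite-detected luciferase (10 minutes, ambient) reports Rab9 promoter activation. Before that, stable Rab9-luciferase Huh7 cells (1500/well, reduced-serum OP-MEM I plus 10% FBS) were exposed to compound for 24 hours at 37C.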
Potency is read from the fitted curve at half-maximal effect; tags tell the direction and shape of the fitted curve.

Potency, active:
Cn1c(=NC(=O)c2cccc([N+](=O)[O-])c2)sc2ccccc21 2.82 µM
CC1CC1C(=O)Nc1ccc(-c2ccccc2)cc1 (stereo not given) 2.51 µM
Cc1ccc(NC(=O)/C=C2\NC(=O)CS2)cc1 3.16 µM
O=C(COc1ccccc1)Nc1nccs1 3.55 µM
CCCCN1CCc2c([nH]c3ccccc23)C1=O 2.51 µM
C=C(C)CN(CC)C(=O)CCc1nnc(CCCc2ccccc2)o1 3.16 µM
Cc1cc2nc(-c3ccc(SCc4ccccn4)nc3)[nH]c2cc1C 2.51 µM
Oc1ccc(-c2csc(Nc3ncccn3)n2)cc1 0.562 µM
O=C(Nc1ccc2c(c1)OCO2)c1cc(C2CC2)on1 1.41 µM
O=C(Nc1ccc(N2CCOCC2)c(Cl)c1)c1cccc(F)c1 1.58 µM

Potency, inconclusive:
COc1ccc(-c2cc(=Nc3ccc(C(=O)O)cc3)c3cc(C)ccc3o2)cc1 5.62 µM [activator, single point]
Cc1cc2nc(-c3ccccc3)cc(=O)n2[nH]1 3.55 µM [activator, single point]
C/C(=N\Nc1nccnc1Cl)c1ccc(F)cc1 3.55 µM [activator, single point]
Fc1ccc(NC(=S)N/N=C/c2ccc(F)c(F)c2)cc1 2.82 µM [activator, partial curve]
CC(C)CSc1nc2ccccc2[nH]1 3.98 µM [activator, single point]
O=C(c1ccc(Cl)cc1)N1CCCCC(Sc2nnc(-c3ccc4c(c3)OCO4)o2)C1=O (stereo not given) 0.0891 µM [activator, full curve, poor fit]
COc1ccc2c(c1)CC/C2=N\NC(=O)c1ccccc1 3.55 µM [activator, partial curve]
CC(=O)c1ccc(NCCC(=O)c2ccccc2)cc1 1.58 µM [activator, partial curve, poor fit]
COc1ccc(NC(=O)NCCN2C(=O)C3C4C=CC(C4)C3C2=O)cc1 (stereo not given) 2.82 µM [activator, partial curve]
COc1ccccc1C(=O)NNC(=O)c1cccc(O)c1 6.31 µM [activator, single point]
Cc1ccc(NC(=S)NNC(=O)c2ccco2)cc1 6.31 µM [activator, single point]
Cc1ccc2c(Cl)c(C(=O)N/N=C/c3cccn3C)sc2c1 2.82 µM [activator, partial curve]
COCn1c(COc2ccccc2)nc2ccccc21 3.55 µM [activator, single point]
O=C(CSc1nnc(-c2cccnc2)o1)Nc1ccc(Cl)cc1 3.55 µM [activator, partial curve]
O=C(OCc1ccccc1)c1cccc(-c2nnc(-c3ccccc3)o2)c1 1.26 µM [activator, full curve, poor fit]
CCOc1ccc(NC(=O)N2CCc3ccccc3C2)cc1 5.62 µM [activator, single point]
COc1ccc(/C=C/C(=O)NC(=S)N2CCN(c3ccccc3OC)CC2)cc1 1.41 µM [activator, partial curve]
Cc1ccc(C(=O)CC(c2cccs2)S(=O)(=O)c2ccc(C)cc2)cc1 (stereo not given) 3.16 µM [activator, single point]
CC(C)COc1ccc(C(=O)Nc2ccc(SC(F)F)cc2)cc1 1.58 µM [activator, partial curve]
COc1ccc(/C(C)=N/NC(=O)c2ccccc2OCc2ccccc2)c(OC)c1 2 µM [activator, partial curve]
CC(=O)c1c(C)[nH]c(C(=O)NCCc2c[nH]c3ccccc23)c1C 3.98 µM [activator, single point]
Cn1c(/C(C#N)=C(\O)c2ccc([N+](=O)[O-])s2)nc2ccccc21 2.51 µM [activator, partial curve]
O=C(CCNS(=O)(=O)c1cccs1)N1CCCCCC1 6.31 µM [activator, single point]
COC(=O)c1cc2c(s1)-c1ccc(OC)cc1CC2 3.16 µM [activator, single point]
O=C(CCCOc1cccc(Br)c1)NC1CCC(O)CC1 (stereo not given) 3.16 µM [activator, partial curve]
O=C(NCCC1=CCCCC1)C(=O)c1c[nH]c2ccccc12 2.51 µM [activator, partial curve]
Cc1ccc(-c2nc(C=Nc3ccccc3)c(O)o2)cc1 1 µM [activator, partial curve]
COC(=O)c1nc2ccc(C)cn2c1F 3.55 µM [activator, single point]

activation, negative = inhibition, inactive:
O=C(CN1CCc2ccccc2C1)Nc1ccccc1F 2.13%
Cc1ccccc1N(C(=O)CNC(=O)c1ccco1)C(C(=O)NC1CCCCC1)c1cccnc1 (stereo not given) -1.13%
CCOC(=O)Cn1nc(Cc2ccccc2)c2ccccc2c1=O -5.88%
O=C(CCN1C(=O)C2CCCCC2C1=O)Nc1cc([N+](=O)[O-])ccc1Cl (stereo not given) -0.542%
NC(=O)c1ccc(NC(=O)CCN=C2NS(=O)(=O)c3ccccc32)cc1 0.548%
CCC(=O)Nc1ccc(/C(C)=N\NC(=O)c2ccc(OC)cc2)cc1 -2.14%
O=C(N/N=C/c1cc(Br)cs1)c1c[nH]c2ccccc12 24.2%
O=C1C=C(c2cc(C(F)(F)F)cc(C(F)(F)F)c2)C[C@@H](c2ccc3c(c2)OCO3)C1 -9.28%
CC(=O)c1cnc(Oc2cc(Cl)ccc2Cl)nc1C -4.36%
CN(C(=S)NC(=O)C1CC1)c1ccc(O)cc1 11.3%
COc1ccc(CC(=O)Nn2c(-c3ccccc3)nc3ccccc3c2=O)cc1 -0.944%
O=C(NCc1cccc2[nH]ccc12)C1CCC(=O)N(CCc2ccc(Cl)cc2)C1 (stereo not given) 8.73%
